Consider 48 molecules from PubChem BioAssay AID1645882 (National Center for Advancing Translational Sciences (NCATS), 2021).

SMILES strings stand for the structures. About 120 (0.75%) of roughly 16,000 compounds were called active. Inconclusive results (about 4%) are left out. The call rests on the fitted dose curve; in most records, active means well fitted inhibition curve with a large enough effect; inconclusive means small, poorly fitted or top-dose-only effect; inactive means no such curve, though single readings can be large or run the other way. Some of the results follow.

Chain of UniProt O95398 (O95398 whole entry, looked up): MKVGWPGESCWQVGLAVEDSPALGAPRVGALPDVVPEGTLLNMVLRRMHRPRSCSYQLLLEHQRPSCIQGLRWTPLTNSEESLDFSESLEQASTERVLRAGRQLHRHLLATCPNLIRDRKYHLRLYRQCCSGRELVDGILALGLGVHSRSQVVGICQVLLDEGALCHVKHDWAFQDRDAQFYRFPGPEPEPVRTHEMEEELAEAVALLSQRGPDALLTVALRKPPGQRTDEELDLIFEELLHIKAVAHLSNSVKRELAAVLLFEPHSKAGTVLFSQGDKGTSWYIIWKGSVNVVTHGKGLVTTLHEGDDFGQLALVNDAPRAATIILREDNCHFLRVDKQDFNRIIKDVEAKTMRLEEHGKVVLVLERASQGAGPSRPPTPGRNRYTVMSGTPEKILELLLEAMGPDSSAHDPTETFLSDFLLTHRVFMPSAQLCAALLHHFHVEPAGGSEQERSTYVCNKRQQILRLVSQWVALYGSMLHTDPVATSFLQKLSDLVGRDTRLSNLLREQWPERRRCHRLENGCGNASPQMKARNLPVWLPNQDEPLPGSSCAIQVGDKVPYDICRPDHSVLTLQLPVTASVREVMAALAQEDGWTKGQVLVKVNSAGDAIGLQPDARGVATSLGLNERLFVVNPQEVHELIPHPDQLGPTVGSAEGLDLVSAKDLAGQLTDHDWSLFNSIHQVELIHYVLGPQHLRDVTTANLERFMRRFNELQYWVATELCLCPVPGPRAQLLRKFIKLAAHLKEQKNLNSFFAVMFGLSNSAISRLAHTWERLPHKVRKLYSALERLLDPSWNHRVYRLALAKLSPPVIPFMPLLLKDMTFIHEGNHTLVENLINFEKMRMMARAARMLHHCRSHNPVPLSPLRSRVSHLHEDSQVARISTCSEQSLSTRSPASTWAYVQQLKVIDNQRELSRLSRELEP

The target of the experiment is Rap guanine nucleotide exchange factor 3 (Homo sapiens) (UniProt O95398). Nature of the experiment: Validation qHTS for antagonist of cAMP-regulated guanine nucleotide exchange factor 3 (EPAC1).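 Further: plate controls were DMSO for no effect and ATA control for full effect; nearly all actives have a fitted effect of over 75% in size.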 The conditions noted are these: EPAC1 Rap1B-BODIPY-GDP exchange, fluorescence; series mostly up to 150 µM; activity change, negative = inhibition: at the top concentration. Put shortly:
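Nucleotide exchange followed as fluorescence loss when BODIPY-GDP leaves Rap1B (480 nm excitation, 540 nm emission), read at 5 min intervals over 30 min. Reaction: 100 nM EPAC1, 250 nM RAP1B-BODIPY-GDP, 50 uM GDP; ATA and DMSO define normalization.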
For the molecule `CCN(CC)C1CCN(C(=O)c2cnn(-c3nccc(-c4ccco4)n3)c2C(C)C)C1` (stereo not drawn), the “activity change, negative = inhibition” value is inactive: 14.3%.

Regarding `COc1ccccc1-c1nccc(-n2ccnc2)n1`, the “activity change, negative = inhibition” value was inactive: 27.9%.

For the molecule `CN(Cc1cc(Br)cc(Br)c1N)C1CCCCC1`, the “activity change, negative = inhibition” value was inactive: 19.4%.

Take `Cn1nccc1C(=O)NCC1CCC2(CCN(Cc3cccc4ncccc34)CC2)O1` (stereo not drawn): the “activity change, negative = inhibition” value was inactive: 14.3%.

In the case of `CC1(C)O[C@@H]2C[C@H]3[C@@H]4C[C@H](F)C5=CC(=O)C=C[C@]5(C)[C@H]4[C@@H](O)C[C@]3(C)[C@]2(C(=O)CO)O1`, the “activity change, negative = inhibition” value was inactive: 4.52% [at 75.8 µM].

For `COC(=O)[C@@H]1C[C@@H](NC(=O)c2cccc3c(C)c(C)[nH]c23)CN1Cc1cccc2ccccc12`, the “activity change, negative = inhibition” value is inactive: 16.7%.

On to `C[C@@H]1CC[C@H]2[C@H](C)[C@H]3CC[C@H]4C5[C@@H](O)CC6=CC(=O)CC[C@]6(C)[C@H]5C[C@H]4C3C(=O)N2C1` (stereo partly drawn), for which the “activity change, negative = inhibition” value was inactive: 33.8%.

In the case of `CCOC(=O)C[C@H]1c2cc(F)ccc2S(=O)(=O)N1C1CCCCC1`, the “activity change, negative = inhibition” value is inactive: -12.8%.

With `Cn1cnc2c(F)c(Nc3ccc(Br)cc3Cl)c(C(=O)NOCCO)cc21`, the “activity change, negative = inhibition” value is inactive: 30.4%.

In the case of `CC(C)Oc1ccc(C(=O)NCC2Cc3cc(F)cc(-c4cnccn4)c3O2)cc1` (stereo not drawn), the “activity change, negative = inhibition” value was inactive: 0.767%.

For `O=C(Nc1cccc(F)c1)N1CC2(CCN(C(=O)c3cccc(F)c3)CC2)C1`, the “activity change, negative = inhibition” value is inactive: 0.871%.

For `COCCn1c(=O)c(-c2cn(C)c3ccccc23)nc2cncnc21`, the “activity change, negative = inhibition” value is inactive: 15.3%.

Regarding `CC(=O)OC1CC2C(C)(C)C(=O)CC[C@]2(C)C2CC[C@@]3(C)C(c4ccoc4)OC(=O)C4OC43[C@]12C` (stereo partly drawn), the “activity change, negative = inhibition” value is inactive: -21.3%.

Consider `C=C1C2CC[C@@]3(C)C(c4ccoc4)OC(=O)C[C@@]13OC1CC(O)C(C)(C)C(CC(=O)OC)[C@@]12C` (stereo partly drawn), for which the “activity change, negative = inhibition” value is inactive: -1.21%.

Turning to `CCCCCCCCCCCCCCCC(=O)N[C@H](CN1CCOCC1)[C@H](O)c1ccccc1`, the activity change, negative = inhibition was inactive: 22.5% [at 15.3 µM].

For `COc1ccccc1CNc1ncncc1-c1cccc(C#N)c1`, the “activity change, negative = inhibition” value is inactive: 17.6%.

With `Cc1ccnc2ccc(I)cc12`, the “activity change, negative = inhibition” value was inactive: 16.8%.

Regarding `NC(=O)c1ccccc1`, the “activity change, negative = inhibition” value is inactive: -0.597% [at 75.8 µM].

Turning to `COc1ccccc1C1CN(Cc2cccnc2)Cc2ccccc2O1` (stereo not drawn), the “activity change, negative = inhibition” value is inactive: 12.2%.

`O=C(c1csnn1)N1CCC2(CCCN(Cc3cc(C(F)(F)F)cc(C(F)(F)F)c3)C2)CC1`: the “activity change, negative = inhibition” value was inactive: -13.8%.

In the case of `O=c1cnc2cnc(N3CCOCC3)nc2n1CCc1ccccc1`, the “activity change, negative = inhibition” value was inactive: -0.293%.

Consider `CC(=O)NCCNc1ncnc2ccc(-c3c(C)noc3C)cc12`, for which the “activity change, negative = inhibition” value was inactive: 7.88%.

For the molecule `NC(N)=NC(N)=Nc1ccccc1`, the activity change, negative = inhibition entry is “inactive”.

Turning to `O=C(Nc1ccccc1)N1CCCC2(CCN(C(=O)c3cnccn3)CC2)C1`, the “activity change, negative = inhibition” value is inactive: 15.6%.

Consider `CCCCCC=CCC=CCCCCCCCC(=O)OCC`, for which the “activity change, negative = inhibition” value is inactive: 15%.

Consider `c1ccc(CNc2ncncc2-c2ccoc2)cc1`, for which the “activity change, negative = inhibition” value was inactive: 14.6%.

Consider `CCn1c(-c2ccccc2F)nc2cc(C(=O)NC(c3ccccn3)C(F)(F)F)cc(NC(C)=O)c21` (stereo not drawn), for which the “activity change, negative = inhibition” value is inactive: 19.5%.

In the case of `NCCc1ccc(O)c(O)c1`, the activity change, negative = inhibition result is “inactive”.

On to `CC(=O)N1CCC[C@@]2(CCN(C(=O)Nc3cccc(C#N)c3)C2)C1`, for which the “activity change, negative = inhibition” value is inactive: 17.2%.

Take `COc1ccccc1-c1nc(N2CCOCC2)c2ccccc2n1`: the “activity change, negative = inhibition” value is inactive: 8.2%.

Consider `OC[C@H]1OC([S-])[C@H](O)[C@@H](O)[C@@H]1O.[Au+]` (stereo partly drawn), for which the “activity change, negative = inhibition” value was inactive: -17.7%.

On to `COc1ccc2c(=O)cc(-c3ccc(O)cc3)oc2c1`, for which the “activity change, negative = inhibition” value was inactive: 18.6%.

As to `O=C(c1cccc(Cl)c1)N1CCCC(Cn2cc(C(=O)N3CCCC3)nn2)C1` (stereo not drawn), the “activity change, negative = inhibition” value was inactive: 6.26%.

In the case of `C[C@H](Cc1ccc(O)c(O)c1)[C@@H](C)Cc1ccc(O)c(O)c1`, the activity change, negative = inhibition entry was “inactive”.

Turning to `CCC1CN(Cc2c(C)nc3sccn23)Cc2cc(OC)ccc2O1` (stereo not drawn), the “activity change, negative = inhibition” value is inactive: 20.8%.

As for `CCN1CCCC1CNC(=O)c1cc(S(=O)(=O)CC)ccc1OC` (stereo not drawn), the activity change, negative = inhibition result was “inactive”.

For `C[C@H](O)[C@H](O)[C@H]1CNc2nc(N)[nH]c(=O)c2N1`, the “activity change, negative = inhibition” value is inactive: 27.6%.

For `CC1CC[C@@]23CCC4(C)[C@@]5(C)CCC6C(C)(C)C(O)CC[C@@]6(C)C5C=C[C@@]4(OC2=O)C3C1C` (stereo partly drawn), the “activity change, negative = inhibition” value was inactive: 4.77%.

Take `Cc1c(C(=O)N2CCCC(c3ccccc3)C2)sc2ncnc(NCCc3ccccn3)c12` (stereo not drawn): the “activity change, negative = inhibition” value is inactive: 4.72%.

For `COc1cc(=O)n2c(c1C(=O)NC(C)c1ccco1)CCN(C(=O)c1ccc(F)cc1Cl)CC2` (stereo not drawn), the “activity change, negative = inhibition” value is inactive: 10.1%.

With `CCN(CCO)C(=O)c1cnn(-c2ncc3c(n2)-c2ccccc2CCC3)c1C1CC1`, the “activity change, negative = inhibition” value is inactive: -7.5%.

Take `CN(Cc1ccccc1)c1ccc(C=O)cc1`: the “activity change, negative = inhibition” value is inactive: 16.7%.

`COC(=O)[C@@H]1CCCN1C(=O)c1c(OC)cc(=O)n2c1CCN(Cc1cc(OC)ccc1F)CC2`: the “activity change, negative = inhibition” value is inactive: 10.3%.

For `CC(C)(C)N1[C@@H](CC(=O)O)c2cc(C(F)(F)F)ccc2S1(=O)=O`, the “activity change, negative = inhibition” value was inactive: -5.04%.

Turning to `Cn1c(=O)c(-c2cc(F)cc(F)c2)nc2cnc(N3CCOCC3)nc21`, the “activity change, negative = inhibition” value is inactive: 0.301%.

For `N#Cc1ccc(CN2CCC3(CC2)CCN(C(=O)c2ccncc2)CC3)cc1`, the “activity change, negative = inhibition” value is inactive: 22.8%.

As to `C[C@H]1[C@H]2CC[C@H]3[C@@H]4CC=C5C[C@@H](N(C)C)CC[C@]5(C)[C@H]4CC[C@]23CN1C`, the “activity change, negative = inhibition” value is inactive: 16.3%.

In the case of `C=C[C@@H]1c2c(F)cccc2N(S(=O)(=O)c2ccc(C)cc2)[C@H](c2ccc(C(=O)OC)cc2)C1(C#N)C#N`, the “activity change, negative = inhibition” value is inactive: -12.1%.
